Reference: PubChem BioAssay AID485294 (National Center for Advancing Translational Sciences (NCATS), 2010)
Values joined by “and” are separate entries in the source; they are usually repeats but may differ in a detail not shown here. Equal entries are not always repeated. Screen size: about 370,000 compounds; about 150 (0.041%) were called active. The inconclusive results got no clear call from the source; some entries with a clear call stand among them for comparison. Calls follow the shape of the dose curve; as a rule, active = well fitted inhibition curve with a large enough effect; inconclusive = small, poorly fitted or top-dose-only effect; inactive = flat fitted curve, though single readings scatter. Potencies of inconclusive entries are doubtful fits and often do not repeat.

molecular target: Beta-lactamase (Escherichia coli (strain K12)) (UniProt P00811); experiment: qHTS Inhibitors of AmpC Beta-Lactamase (assay with detergent); conditions: AmpC hydrolysis of nitrocefin, absorbance 480 nm, 0.01% Triton; series mostly up to 114 µM; also: nearly all actives have a fitted effect of over 25% in size
Summary of the method: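 AmpC (5.3 nM in the dispensed reagent) in 20 mM phosphate pH 7.0 with 0.01% (detergent screen) or 0.0001% Triton X-100 was preincubated with compounds for 15 min at room temperature. Nitrocefin was then added from an 800 uM solution, and hydrolysis was followed at 480 nm.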
Potency is read from the fitted curve at half-maximal effect; tags tell the direction and shape of the fitted curve.

Sequence of UniProt P00811 (P00811 whole entry, looked up): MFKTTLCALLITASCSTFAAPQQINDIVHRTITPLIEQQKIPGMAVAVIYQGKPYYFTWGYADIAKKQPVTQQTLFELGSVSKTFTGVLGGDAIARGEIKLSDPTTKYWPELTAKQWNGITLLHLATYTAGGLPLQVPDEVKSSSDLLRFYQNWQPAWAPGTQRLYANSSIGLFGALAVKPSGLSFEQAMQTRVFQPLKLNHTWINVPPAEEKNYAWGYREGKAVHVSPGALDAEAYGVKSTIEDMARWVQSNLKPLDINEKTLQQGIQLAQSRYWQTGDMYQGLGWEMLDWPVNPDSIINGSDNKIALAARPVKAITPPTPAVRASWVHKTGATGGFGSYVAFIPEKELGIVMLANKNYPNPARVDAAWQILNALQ

SMILES | Potency
COc1ccc2c(c1)nc(SCC(=O)c1ccc(Br)s1)n2C | inactive
CC(C)(C)NC(=O)CN(C(=O)CCN1CCCc2ccccc21)C(C)(C)C | inconclusive: 1.41 µM [inhibitor, full curve, poor fit]
CCC(=O)NC(=S)Nc1cccc(NC(=O)c2ccccc2C)c1 | inactive
CC(=O)N1CCCC(C(=O)c2ccc(Oc3ccccc3)cc2)C1 (stereo not given) | inactive
CCn1c(=O)n(CCc2ccccc2)c(=O)c2c3c(sc21)CCCC3 | inconclusive: 3.16 µM [inhibitor, full curve, poor fit]
Cc1ccsc1C(=O)C1CCCN(Cc2cnc(N(C)C)s2)C1 (stereo not given) | inactive
Cc1c(OCC(=O)N[C@@H](Cc2c[nH]c3ccccc23)C(=O)O)ccc2c1oc(=O)c1ccccc12 | inconclusive: 50.1 µM [inhibitor, full curve, poor fit]
O=C(Cn1ncc2c([nH]c3ccccc32)c1=O)Nc1cccc(C(F)(F)F)c1 | inactive
CC(C)Cn1c(N)cc(=O)n(C)c1=O | inconclusive: 3.55 µM [inhibitor, full curve]
O=C(CCl)Nc1cc2[nH]c(=O)[nH]c2cc1Br | inactive
CN(CCOC(=O)c1cccc(Br)c1)C(C)(C)C | inconclusive: 44.7 µM [inhibitor, partial curve, poor fit]
Cc1nc(NN)nc(NCc2ccccc2)n1 | inconclusive: 39.8 µM [inhibitor, partial curve, poor fit]
N#Cc1nc(-c2cccs2)oc1NCC1CCCO1 (stereo not given) | inconclusive: 3.98 µM [inhibitor, full curve]
Cc1ccc(S(=O)(=O)N2CCC(=O)N(C(COCc3ccc(C(F)(F)F)cc3)Cc3ccccc3)CC2)cc1 (stereo not given) | inconclusive: 50.1 µM [inhibitor, partial curve, poor fit]
O=S(=O)(NCC1CCCO1)c1cccc2nsnc12 (stereo not given) | inconclusive: 0.794 µM [inhibitor, full curve, poor fit]
CCO[C@@H]1OC(C(=O)N2CCN(Cc3ccc4c(c3)OCO4)CC2)=C[C@H](C2CC2)[C@H]1CCCO | inactive
N#Cc1ccc(C(=O)CN2CCN(c3ccccc3)CC2)cc1 | inactive
O=[N+]([O-])c1ccc2c(c1)nc(CO)n2Cc1ccccc1 | inconclusive: 100 µM [inhibitor, partial curve, poor fit]
O=C(OCc1nc2ccccc2[nH]1)C12CC3CC(CC(C3)C1)C2 | inconclusive: 25.1 µM [inhibitor, partial curve]
CN(C)C=NC(=O)c1cc(C(=O)c2ccccc2Cl)c[nH]1 | inconclusive: 44.7 µM [inhibitor, partial curve, poor fit]
Cc1cc(OCC(=O)OCC(=O)NCc2ccco2)ccc1Cl | inconclusive: 2.82 µM [inhibitor, single point]
N#CCCn1cc(C(=O)Nc2ccccc2Br)c(-c2cccs2)n1 | inconclusive: 25.1 µM [inhibitor, full curve]
O=C(Nc1ccc(S(=O)(=O)N2CCCCC2)cc1)C1CCCN(C(=O)c2ccc(Cl)cc2)C1 (stereo not given) | inactive
COc1ccccc1NC(=O)c1cc(C(=O)Nc2ccccc2OC)cc(N2C(=O)CCC2=O)c1 | inconclusive: 3.16 µM [inhibitor, full curve, poor fit]

SMILES | Potency
Cc1ccc2nc(-c3cccc(NC(=O)c4ccco4)c3)[nH]c2c1 | inactive
CCCOc1ccc(/C=N/NC(=O)c2nnn(-c3nonc3N)c2-c2cccs2)cc1OC | inactive
COCCNC(=O)C1(C)C=CC2(CCCCC2)N1C(=O)c1ccccc1 (stereo not given) | inconclusive: 28.2 µM [inhibitor, full curve, poor fit]
COc1cc(NC(=O)c2c(F)cccc2F)nc(OC)n1 | inactive
CCn1nnc(NC(=O)c2ccco2)n1 | inconclusive: 4.47 µM [inhibitor, full curve, poor fit]
N#CCc1ccc(NS(=O)(=O)c2ccc(N3CCCC3=O)cc2)cc1 | inconclusive: 10 µM [inhibitor, partial curve]
CCCC1O[C@@H]2CC3C4CCC5=CC(=O)C=C[C@]5(C)C4C(OC(C)=O)C[C@]3(C)[C@]2(C(=O)COC(C)=O)O1 (stereo not given in full) | inconclusive: 56.2 µM [inhibitor, partial curve, poor fit]
O=C(NC1(C(F)(F)F)N=C(c2ccccc2)NC1=O)c1ccccc1 (stereo not given) | inconclusive: 50.1 µM [inhibitor, partial curve, poor fit]
COC(=O)c1cc(Cl)c(NC(=O)c2cc3ccccc3o2)cc1OC | inconclusive: 3.98 µM [inhibitor, full curve, poor fit]
Cc1ccc(CNC(=O)c2ccc(N3CCC4(CC3)CC(c3ccccc3)=NO4)c(NC(=O)c3c(Cl)cccc3Cl)c2)cc1 | inconclusive: 5.01 µM [inhibitor, full curve, poor fit]
COc1cc(OC)cc(C(=O)N/N=C/c2ccc(OC)c(COc3ccc(F)cc3)c2)c1 | inactive
O=C(O)CN1C(=O)c2cccc3c(Br)ccc1c23 | inactive
NC(=O)C(c1ncc(C(F)(F)F)cc1Cl)c1c(Cl)cccc1Cl (stereo not given) | inconclusive: 25.1 µM [inhibitor, full curve, poor fit]
CC(=O)Nc1sc2c(c1C(c1ccccc1)N1CCOCC1)CCCC2 (stereo not given) | inactive
CCOc1ccccc1NS(=O)(=O)c1cccc2nsnc12 | inconclusive: 28.2 µM [inhibitor, full curve]
O=C1C(C=NCCCN2CCCC2=O)=C(O)c2ccccc21 | inactive
CS(=O)c1ccccc1COC(=O)Nc1ccccc1 (stereo not given) | inconclusive: 35.5 µM [inhibitor, partial curve, poor fit]
Cn1c(NC(=O)c2ccco2)c(-c2ccccc2)c(=O)c2ccccc21 | inactive
Cc1ccc(/C=N\NC(=O)CC(=O)NCCc2ccccc2)cc1 | inconclusive: 89.1 µM [inhibitor, single point]
COCCCNC(=O)c1ccc2c(c1)OCO2 | inactive
Cc1ccc(NC(=O)C(=O)NCCN2CCN(S(C)(=O)=O)CC2)cc1C | inactive
C#CCN(CC=C)C(=O)c1ccc(OC2CCN(S(=O)(=O)N(C)C)CC2)cc1 | inactive
Cc1ccc(C)c(SCC(=O)OC/C(O)=C(\C#N)c2nc3ccccc3[nH]2)c1 | inactive
Nc1nnn(CC(=O)N/N=C/c2ccccc2Cl)n1 | inactive

SMILES | Potency
Fc1ccccc1COc1ccc(-c2nnn(Cc3ccccc3F)n2)cc1 | inconclusive: 7.08 µM [inhibitor, full curve, poor fit]
O=C(Cn1nc2ccccc2n1)N/N=C/c1cc(Cl)cc([N+](=O)[O-])c1O | inactive
C=CCn1c(SCC(=O)Nc2nc3ccccc3s2)nnc1-c1ccccc1O | inconclusive: 6.31 µM [inhibitor, partial curve]
Cc1ccc(C(C)n2cc(C(=O)NCc3cccnc3)nn2)cc1 (stereo not given) | inconclusive: 50.1 µM [inhibitor, full curve, poor fit]
Cc1cccc(NC(=O)c2ccc3c(c2)OCCO3)c1C | inactive
Cc1ccc(/C=C/C(=O)NCc2ccc3c(c2)OCO3)o1 | inconclusive: 39.8 µM [inhibitor, single point]
COc1cccc(-c2nc(CS(=O)(=O)CC(=O)Nc3ccccc3Cl)c(C)o2)c1 | inconclusive: 3.98 µM [inhibitor, full curve, poor fit]
CCCOc1ccc(CN(CCO)CCO)cc1C(=O)OC | inconclusive: 2.82 µM [inhibitor, full curve]
O=C(Nc1nnc(-c2ccccc2Cl)o1)c1nc2ccccc2s1 | inconclusive: 5.62 µM [inhibitor, full curve, poor fit]
CCCc1cc(=O)n2[nH]c(NCc3ccccc3Cl)nc2n1 | inconclusive: 44.7 µM [inhibitor, partial curve]
COc1ccc(C(=O)Nc2ccc3c(c2)n(C)c(=O)n3C)cc1OC | inactive
COC(=O)CCNc1ccc2c(c1)OCCO2 | inconclusive: 0.562 µM [inhibitor, full curve, poor fit]
CCOc1ccccc1N1CCN(C2=C(NS(=O)(=O)c3cccs3)C(=O)c3ccccc3C2=O)CC1 | inconclusive: 5.01 µM [inhibitor, full curve, poor fit]
Cc1sc2nc(CN3CCOCC3)nc(Oc3ccc(NC(=O)c4ccco4)cc3)c2c1C | inactive and inconclusive: 1.78 µM [inhibitor, full curve, poor fit]
Cc1cc(C)c(-c2c(O)c3cccc4c3n(c2=O)CCC4)c(C)c1 | inconclusive: 70.8 µM [inhibitor, partial curve, poor fit]
Cc1ccc(N(CC(=O)N2CCN(c3ccccc3)CC2)S(=O)(=O)c2c(C)noc2C)cc1 | inactive
Cc1nc(-c2ccc(F)cc2)sc1CCNC(=O)c1cccs1 | inconclusive: 3.55 µM [inhibitor, partial curve, poor fit]
Fc1ccccc1CSc1ncnc2c1oc1ccccc12 | inconclusive: 6.31 µM [inhibitor, full curve, poor fit]
CC(=O)Nc1ccc(NC(=O)/C=C/c2ccc3c(c2)OCO3)cc1 | inactive
Cc1ccc(S(=O)(=O)Cc2ccc(C(=O)N3CCCCCC3)o2)cc1 | inconclusive: 63.1 µM [inhibitor, partial curve]
O=C(CN1C(=O)CSc2ccc(S(=O)(=O)N3CCOCC3)cc21)NCCCN1CCCCC1 | inconclusive: 2.82 µM [inhibitor, single point]
O=[N+]([O-])c1cccc(-c2ncc3ccccn23)c1 | inactive
